{"source": "the supplement of paper PMC8183993", "note": "“And” between values parts separate entries of the source, which are not always exact repeats. Equal values may be shown once. Where a name gives a salt, the structure may show the parent alone. ± gives the standard deviation of the averaged measurements. In all, about 3,200 compounds were measured (“nuclei count (viability) relative to DMSO”: median about 99, lowest 2% from about 16 on). Some of the results follow."}
{"test_system": "U2OS", "assay": "nuclei count (viability) relative to DMSO (% of DMSO); higher = more viable cells", "conditions": "10 µM; 24 h", "experimental": "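Primary image-based screen in U2OS cells: compounds at 10 uM for 24 h, then a 1 h o-propargyl-puromycin (OPP) pulse, click labelling, and high-throughput microscopy. Mean cytoplasmic OPP intensity and nuclei count were normalised to DMSO wells within each plate (DMSO = 100) and averaged over triplicate plates.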"}
{"smiles": "COc1cc2ncnc(Oc3cccc(NC(=O)Nc4cc(C(C)(C)C(F)(F)F)on4)c3)c2cc1OC", "nuclei count": "99.7 ± 4.1"}
{"smiles": "O=c1c(O)c(-c2ccc(O)c(O)c2)oc2cc(O)ccc12", "note": "[Fisetin (Fustel)]", "nuclei count": 91.7}
{"smiles": "CNS(=O)(=O)Cc1ccc2[nH]cc(CCN(C)C)c2c1", "note": "[Sumatriptan succinate]", "nuclei count": "101 ± 4"}
{"smiles": "NCC(=O)Nc1ccc(-n2nc(C(F)(F)F)cc2-c2ccc3c(ccc4ccccc43)c2)cc1", "nuclei count": "34.8 ± 5.6"}
{"smiles": "COc1ccc(-c2nc3cc(C4=NNC(=O)CC4C)ccc3[nH]2)cc1", "note": "(centres undefined) [Pimobendan (Vetmedin)]", "nuclei count": 85.9}
{"smiles": "Cc1ccc(S(=O)(=O)n2c(N)nc3ccccc32)cc1", "nuclei count": 99.7}
{"smiles": "CNC(=O)c1ccc(-c2cnc3ncc(Cc4ccc5ncccc5c4)n3n2)cc1F", "nuclei count": 105}
{"smiles": "CC(C)COCC(CN(Cc1ccccc1)c1ccccc1)N1CCCC1", "note": "(centres undefined) [Bepridil]", "nuclei count": 109}
{"smiles": "CC(C)COCC(CN(Cc1ccccc1)c1ccccc1)N1CCCC1", "note": "(centres undefined) [Bepridil hydrochloride]", "nuclei count": 101}
{"smiles": "CCC(CC)(CC(=O)Nc1cccc(/C=C/c2nc(C3CCC3)cs2)c1)C(=O)O", "note": "[Cinalukast]", "nuclei count": 103}
{"smiles": "NC(=O)c1ncn([C@@H]2O[C@H](CO)[C@@H](O)[C@H]2O)n1", "note": "[Ribavirin]", "nuclei count": 111}
{"smiles": "NC(=O)c1ncn([C@@H]2O[C@H](CO)[C@@H](O)[C@H]2O)n1", "note": "[Ribavirin (Copegus)]", "nuclei count": 102}
{"smiles": "CCOC(=O)[C@H](CCc1ccccc1)N[C@@H](C)C(=O)N1[C@H](C(=O)O)C[C@@H]2CCC[C@@H]21", "note": "[Ramipril]", "nuclei count": 107}
{"smiles": "CCOC(=O)[C@H](CCc1ccccc1)N[C@@H](C)C(=O)N1[C@H](C(=O)O)C[C@@H]2CCC[C@@H]21", "note": "[Ramipril (Altace)]", "nuclei count": 93.2}
{"smiles": "CCOc1ccc2c(c1)C(C)=CC(C)(C)N2", "note": "[Ethoxyquin]", "nuclei count": "101 ± 1.2"}
{"smiles": "CCOc1cc([C@@H](CS(C)(=O)=O)N2C(=O)c3cccc(NC(C)=O)c3C2=O)ccc1OC", "nuclei count": 102}
{"smiles": "NS(=O)(=O)c1cc(C(=O)O)c(NCc2ccco2)cc1Cl", "note": "[Furosemide]", "nuclei count": 96.1}
{"smiles": "CCn1nnc2c(N3CCOCC3)nc(-c3ccc(NC(=O)Nc4ccc(C(=O)N5CCN(C)CC5)cc4)cc3)nc21", "nuclei count": 77.7}
{"smiles": "O=C(O)C(=O)O.[NH-]C1CCCCC1[NH-].[Pt+2]", "note": "(centres undefined) [Oxaliplatin (Eloxatin)]", "nuclei count": 77.6}
{"smiles": "CCc1cncnc1N1CCN(Cc2nc3ccc(C(F)(F)F)cc3[nH]2)CC1", "nuclei count": "99.88 ± 0.89"}
{"smiles": "CC1=C(C(=O)OC(C)C)C(c2cccc([N+](=O)[O-])c2)C(C(=O)OC2CN(C(c3ccccc3)c3ccccc3)C2)=C(N)N1", "note": "(centres undefined) [Azelnidipine]", "nuclei count": 106}
{"smiles": "Cc1cc(C2CCCCC2)n(O)c(=O)c1", "note": "[Ciclopirox ethanolamine]", "nuclei count": "63.4 ± 7.6"}
{"smiles": "CCS(=O)(=O)N(C)[C@H]1c2cc(C#N)ccc2OC(C)(C)[C@@H]1O", "note": "[(-)-[3R,4S]-Chromanol 293B]", "nuclei count": 99.2}
{"smiles": "COc1cc(C(=O)NS(=O)(=O)c2ccccc2C)ccc1Cc1cn(C)c2ccc(NC(=O)OC3CCCC3)cc12", "note": "[Zafirlukast]", "nuclei count": 114}
{"smiles": "CCCCCCCCCCCCCCCC(=O)NCCO", "note": "[Palmitoylethanolamide]", "nuclei count": 96.8}
{"smiles": "CN1CCN(C2=Nc3cc(Cl)ccc3Nc3ccccc32)CC1", "note": "[Clozapine]", "nuclei count": "101.6 ± 0.41"}
{"smiles": "CO[C@@H](C(=O)N1Cc2[nH]nc(NC(=O)c3ccc(N4CCN(C)CC4)cc3)c2C1)c1ccccc1", "nuclei count": 46.9}
{"smiles": "O=C(O)c1ccccc1Nc1ccccc1", "note": "[N-phenylanthranilic acid]", "nuclei count": 103}
{"smiles": "CC[C@H](C)[C@H](N)C1=N[C@H](C(=O)N[C@@H](CC(C)C)C(=O)N[C@H](CCC(=O)[O-])C(=O)N[C@H](C(=O)N[C@H]2CCCCNC(=O)[C@H](CC(N)=O)NC(=O)[C@@H](CC(=O)[O-])NC(=O)[C@H](Cc3cnc[nH]3)NC(=O)[C@@H](Cc3ccccc3)NC(=O)[C@H]([C@@H](C)CC)NC(=O)[C@@H](CCCN)NC2=O)[C@@H](C)CC)CS1.[Zn+2]", "note": "[Bacitracin zinc]", "nuclei count": 109}
{"smiles": "C[C@@H]1NC(=O)NC1=O", "note": "[Methylhydantoin-5-(L)]", "nuclei count": 101}
{"smiles": "CC1CCc2c(N3CCC(O)CC3)c(F)cc3c(=O)c(C(=O)O)cn1c23", "note": "(centres undefined) [Nadifloxacin]", "nuclei count": 104}
{"smiles": "CCCc1c(OCCCCc2nnn[nH]2)ccc(C(C)=O)c1O", "nuclei count": 102}
{"smiles": "Cc1ccc(-c2ncc(Cl)cc2-c2ccc(S(C)(=O)=O)cc2)cn1", "note": "[Etoricoxib]", "nuclei count": 93.8}
{"smiles": "CC1(C)C(=O)NC2=C1C(=O)C(=O)c1ccccc12", "nuclei count": "40.5 and 19.2"}
{"smiles": "NC12CC3CC(CC(C3)C1)C2", "note": "[Adamantamine fumarate]", "nuclei count": 105}
{"smiles": "CC1(C2CCCC2)Cc2cc(OCC(=O)O)c(Cl)c(Cl)c2C1=O", "note": "(centres undefined)", "nuclei count": 102}
{"smiles": "O=c1c2ccccc2oc2ccccc12", "note": "[Xanthone (Genicide)]", "nuclei count": 102}
{"smiles": "CO[C@H]1O[C@@H]2O[C@@]3(C)CC[C@H]4[C@H](C)CC[C@@H]([C@H]1C)[C@@]24OO3", "note": "[Artemether (SM-224)]", "nuclei count": 86}
{"smiles": "Cc1[nH]c2ccccc2c1C(Nc1ccccn1)c1ccc(Cl)cc1", "note": "(centres undefined)", "nuclei count": 93.9}
{"smiles": "Cc1cc(=O)n(-c2ccccc2)n1C", "note": "[Antipyrine]", "nuclei count": 98.5}
{"smiles": "CC(C)[C@@H](O)CC[C@@H](C)[C@H]1CC[C@H]2[C@@H]3CC=C4C[C@@H](O)CC[C@]4(C)[C@H]3CC[C@]12C", "note": "[24(S)-Hydroxycholesterol]", "nuclei count": 87.5}
{"smiles": "Clc1ccc(COC(Cn2ccnc2)c2ccc(Cl)cc2Cl)c(Cl)c1", "note": "(centres undefined) [Miconazole]", "nuclei count": 103}
{"smiles": "Nc1ncn([C@H]2C[C@H](O)[C@@H](CO)O2)c(=O)n1", "note": "[Decitabine]", "nuclei count": 102}
{"smiles": "NCCCCNCCCN", "note": "[Spermidine trihydrochloride]", "nuclei count": 94.4}
{"smiles": "NCCCCNCCCN", "note": "[Spermidine]", "nuclei count": 104}
{"smiles": "CC(C)(C(=O)c1cccnc1)c1cccnc1", "note": "[Metyrapone]", "nuclei count": 93.2}
{"smiles": "O=C(Cc1ccc(-c2ccc(OCCN3CCOCC3)cc2)cn1)NCc1ccccc1", "nuclei count": 21.3}
{"smiles": "CN1CC(=O)NC1=N", "note": "[Creatinine]", "nuclei count": 99.9}
{"smiles": "CC(=O)Nc1ccc(NC(=S)NC(=O)c2ccc(C(C)(C)C)cc2)cc1", "note": "[Tenovin-1]", "nuclei count": 95.7}
{"smiles": "O=c1cc(-c2ccc(O)c(O)c2)oc2cc(O)cc(O)c12", "note": "[Luteolin]", "nuclei count": 84}
{"smiles": "CCOC(=O)[C@]12CC1/C(=N\\O)c1ccccc1O2", "note": "(some centres undefined)", "nuclei count": 103}
{"smiles": "CC(C)/N=c1\\cc2n(-c3ccc(Cl)cc3)c3ccccc3nc-2cc1Nc1ccc(Cl)cc1", "note": "[Clofazimine]", "nuclei count": 101}
{"smiles": "O=C1Cc2cc(CCN3CCN(c4nsc5ccccc45)CC3)c(Cl)cc2N1", "note": "[Ziprasidone  Hydrochloride]", "nuclei count": 105}
{"smiles": "CCN[C@H]1C[C@H](C)S(=O)(=O)c2sc(S(N)(=O)=O)cc21", "note": "[Dorzolamide hydrochloride]", "nuclei count": 111}
{"smiles": "CCN[C@H]1C[C@H](C)S(=O)(=O)c2sc(S(N)(=O)=O)cc21", "note": "[Dorzolamide HCl]", "nuclei count": 93.9}
{"smiles": "C[N+](C)(C)CCCCCNCC12CC3CC(CC(C3)C1)C2", "nuclei count": 99.1}
{"smiles": "CCC(C)[C@H](NS(=O)(=O)c1cccc2ccccc12)C(=O)N[C@H](C=O)Cc1c[nH]c2ccccc12", "note": "(some centres undefined)", "nuclei count": 90.3}
{"smiles": "CC(=O)N(O)CCCCCNC(=O)CCC(=O)N(O)CCCCCNC(=O)CCC(=O)N(O)CCCCCN", "note": "[Deferoxamine mesylate]", "nuclei count": 83.3}
{"smiles": "O=c1cc(N2CCOCC2)oc2c1ccc1ccccc12", "nuclei count": 80.3}
{"smiles": "CCOC(=O)C(C)(C)Oc1ccc(Cl)cc1", "note": "[Clofibrate]", "nuclei count": 107}
{"smiles": "CC(C)NC[C@H](O)COc1ccc(CC(N)=O)cc1", "note": "[(S)-(-)-Atenolol]", "nuclei count": 109}
{"smiles": "CC(C)NC[C@H](O)COc1ccc(CC(N)=O)cc1", "note": "[S-(-)-Atenolol]", "nuclei count": 103}
{"smiles": "CO[C@@]1(NC(=O)CSCC#N)C(=O)N2C(C(=O)O)=C(CSc3nnnn3C)CS[C@@H]21", "note": "[Cefmetazole sodium salt]", "nuclei count": 104}
{"smiles": "COc1ccc2[nH]c(I)c(CCNC(C)=O)c2c1", "note": "[2-Iodomelatonin]", "nuclei count": 94.9}
{"smiles": "C[C@@H]1[C@H](O)[C@@H](C)/C=C/C=C/C=C/C=C/C=C/C=C/C=C/[C@H](O[C@@H]2O[C@H](C)[C@@H](O)[C@H](N)[C@@H]2O)C[C@@H]2O[C@](O)(C[C@@H](O)C[C@@H](O)[C@H](O)CC[C@@H](O)C[C@@H](O)CC(=O)O[C@H]1C)C[C@H](O)[C@H]2C(=O)O", "note": "[Amphotericin B (Abelcet)]", "nuclei count": 46.2}
{"smiles": "C[C@@H]1[C@H](O)[C@@H](C)/C=C/C=C/C=C/C=C/C=C/C=C/C=C/[C@H](O[C@@H]2O[C@H](C)[C@@H](O)[C@H](N)[C@@H]2O)C[C@@H]2O[C@](O)(C[C@@H](O)C[C@@H](O)[C@H](O)CC[C@@H](O)C[C@@H](O)CC(=O)O[C@H]1C)C[C@H](O)[C@H]2C(=O)O", "note": "[Amphotericin B]", "nuclei count": 90.1}
{"smiles": "C[C@H](NC(=O)[C@@H](O)c1cc(F)cc(F)c1)C(=O)N[C@@H]1C(=O)N(C)c2ccccc2-c2ccccc21", "nuclei count": 97.6}
{"smiles": "CN1CCN(C2=Cc3ccccc3Oc3ccc(Cl)cc32)CC1", "nuclei count": 86.5}
{"smiles": "CN1C2=CC(=O)/C(=N\\NC(N)=O)C=C2CC1S(=O)(=O)O", "note": "(centres undefined) [Carbazochrome sodium sulfonate]", "nuclei count": 108}
{"smiles": "CCC(NC(C)C)C(O)c1ccc(O)c(O)c1", "note": "(centres undefined) [Isoetharine mesylate salt]", "nuclei count": 107}
{"smiles": "CCC(Cc1c(I)cc(I)c(N)c1I)C(=O)O", "note": "(centres undefined) [Iopanoic acid]", "nuclei count": 100}
{"smiles": "CSCC[C@H](NC=O)C(=O)N[C@@H](CC(=O)O)C(=O)NCC(=O)N[C@@H](CS)C(=O)N[C@@H](CCC(=O)O)C(=O)N[C@@H](CC(C)C)C(=O)O", "nuclei count": 99.6}
{"smiles": "CN1CCc2cccc3c2[C@H]1Cc1ccc(O)c(O)c1-3", "note": "[R(-) Apomorphine hydrochloride hemihydrate]", "nuclei count": 83.1}
{"smiles": "CN1CCc2cccc3c2[C@H]1Cc1ccc(O)c(O)c1-3", "note": "[(R)-(-)-Apomorphine hydrochloride]", "nuclei count": 102}
